# Experimental data: PubChem BioAssay AID624417 (National Center for Advancing Translational Sciences (NCATS), 2012)
# Out of some 410,000 compounds screened, about 6,400 (1.6%) were called active. Inconclusive results, whose numbers are uncertain, are shown with a selection of clear calls. Calls come from the whole dose curve; as a rule, active = well fitted inhibition curve with a large enough effect; inconclusive = small, poorly fitted or top-dose-only effect; inactive = no such curve, though single readings can be large or run the other way. No potency is given beside an inconclusive call; the fits are too rough.
# Biological target: Glucagon-like peptide 1 receptor (Homo sapiens) (UniProt P43220)
# Assay: qHTS of GLP-1 Receptor Inverse Agonists (Inhibition Mode); note: nearly all actives have a fitted effect of over 55% in size
# Conditions: HEK293 GLP-1R CRE-luciferase, luminescence, 24 h, GLP-1R form is constitutively active; activity change, negative = inhibition: at 38.3 µM (top of the series) unless noted
# In short: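 HEK293 cells stably co-expressing a cAMP-responsive luciferase reporter and constitutively active GLP-1R were seeded, incubated 12 h, then exposed to compounds for 24 h at 37 C. Luminescence was read 12 min after detection reagent; inverse agonists lower signal.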
# % is set by controls: 0 for no effect and ±100 for the full control effect; potency is the fitted concentration of half-maximal effect; tags give direction and shape of the fitted curve.
# Sequence of UniProt P43220 (P43220 whole entry, looked up): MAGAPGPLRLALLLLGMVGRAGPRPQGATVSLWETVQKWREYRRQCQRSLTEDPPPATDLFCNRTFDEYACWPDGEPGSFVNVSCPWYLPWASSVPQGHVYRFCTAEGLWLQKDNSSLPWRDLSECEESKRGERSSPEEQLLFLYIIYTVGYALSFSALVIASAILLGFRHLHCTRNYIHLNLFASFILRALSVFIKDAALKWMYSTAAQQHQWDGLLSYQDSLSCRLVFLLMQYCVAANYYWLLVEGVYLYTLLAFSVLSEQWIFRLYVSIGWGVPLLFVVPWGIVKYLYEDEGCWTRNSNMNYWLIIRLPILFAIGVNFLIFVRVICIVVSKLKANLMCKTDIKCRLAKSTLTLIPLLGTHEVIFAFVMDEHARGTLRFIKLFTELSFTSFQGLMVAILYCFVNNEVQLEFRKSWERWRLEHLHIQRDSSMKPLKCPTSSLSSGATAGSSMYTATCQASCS
Structure (SMILES),Potency,"activity change, negative = inhibition"
Cc1c(Cl)cccc1NC(=O)CNc1cccc(C(F)(F)F)c1,"inconclusive [inhibitor, partial curve, poor fit]",–
COC(=O)/C(C#N)=C/c1c[nH]c2ccccc12,"inconclusive [inhibitor, single point]",–
CC(C)CC1(C)NC(=O)N(CC(=O)Nc2ccc3c(c2)CCC3)C1=O (stereo not given),"inconclusive [inhibitor, single point]",–
CCCCOc1ccc(CNC(=O)c2ccc(-c3nc(CN4CCc5ccccc54)c(C)o3)cc2)cc1,"inconclusive [inhibitor, full curve, poor fit]",–
Cc1ccc([C@@H]2CC=C(C(=O)O)[C@H](c3ccc(F)cc3)N2S(=O)(=O)c2ccc(C)cc2)cc1,"inconclusive [inhibitor, partial curve, poor fit]",–
COc1ccc(OC)c(NC(=O)NCCc2cccc(Cl)c2)c1,"inconclusive [inhibitor, full curve, poor fit]",–
CCOC(=O)C1=CCN(S(=O)(=O)c2ccccc2F)C1c1ccc(Cl)c(Cl)c1 (stereo not given),"inconclusive [inhibitor, single point]",–
COC(=O)c1ccc(C(NC(=O)OCc2ccccc2)/C(C)=C/[C@@H](C)C(=O)NCc2ccc(-c3ccccc3)cc2)cc1 (stereo not given in full),"inconclusive [inhibitor, partial curve, poor fit]",–
Cc1ccc(NC(=O)COc2coc(CN3CCN(c4ccccc4)CC3)cc2=O)cc1,–,inactive: 8.53%
CC(=O)C1CCC2C3CCC4=CC(=O)CCC4(C)C3(F)C(O)CC12C (stereo not given),"inconclusive [inhibitor, full curve, poor fit]",–
COc1cc(/C=C2/SC(=S)N(Cc3ccccc3)C2=O)cc(OC)c1O,"inconclusive [inhibitor, full curve, poor fit]",–
Cc1ccccc1-c1nc(CS(=O)(=O)CC(=O)NCc2ccc3c(c2)OCO3)c(C)o1,"inconclusive [inhibitor, single point]",–
CCCCc1c(-c2ccccc2OC)ncn1CCc1ccccc1Cl,"inconclusive [inhibitor, single point]",–
O=C(NCC1CC1)C1(C(F)(F)F)CC(CCc2ccccc2)CCCO1 (stereo not given),"inconclusive [inhibitor, single point]",–
CSc1ccc(Cl)c(C(=O)Nc2ccc(Cl)cn2)c1,"inconclusive [inhibitor, partial curve, poor fit]",–
O=C(NC(c1ccccc1)c1ccsc1)C1CCN(CCOc2ccc(Cl)cc2Cl)CC1 (stereo not given),"inconclusive [inhibitor, partial curve, poor fit]",–
CCC(=O)n1nc(NCc2ccccc2OC)nc1NCc1ccccc1OC,"inconclusive [inhibitor, partial curve, poor fit]",–
COc1ccc(N(C)S(=O)(=O)c2cccc(C(=O)OC(C)C(=O)NC3CCCCC3C)c2)cc1 (stereo not given),"inconclusive [inhibitor, single point]",–
Cn1cc(CN2CCCC(CO)(Cc3ccccc3)C2)cn1 (stereo not given),–,inactive: 3.92%
CCN(CC)CCNC(=S)Nc1ccc2nc(N3CCCC3)cc(C)c2c1,"inconclusive [inhibitor, partial curve, poor fit]",–

Structure (SMILES),Potency,"activity change, negative = inhibition"
S=C(NCCc1ccc(Cl)cc1)NC1CCCC1,"inconclusive [inhibitor, single point]",–
CC(C)CNC(=O)C1(C)CCCN1Cc1ccccc1OC(F)F (stereo not given),"inconclusive [inhibitor, partial curve, poor fit]",–
CC(C)COC(=O)NC1c2ccccc2Oc2ccccc21,–,inactive: -25.3%
CCc1nc2c(OCCC3CCCCC3)cccn2c1N(C)C(=O)CC(C)C,"inconclusive [inhibitor, partial curve, poor fit]",–
CCc1nnc(NC(=O)CSc2nc(C)c3c(c2C#N)CCCC3)s1,"inconclusive [inhibitor, partial curve, poor fit]",–
CCNc1nc(NCC)n2c(SCC(=O)Nc3ccc(F)cc3)nnc2n1,–,inactive: -1.47%
Cc1ccc2c(c1)c(=O)c(C(=O)c1ccc3c(c1)OCO3)cn2Cc1cccc(F)c1,"inconclusive [inhibitor, single point]",–
COc1ccc(C(=O)NCCSCc2ccc(C)cc2)cc1,"inconclusive [inhibitor, single point]",–
COc1ccc(NC(=O)N(C2CCCCC2)C(C)c2ccco2)c(OC)c1 (stereo not given),"inconclusive [inhibitor, partial curve, poor fit]",–
O=C(NCCc1csc(-c2ccc(F)cc2)n1)c1cccs1,"inconclusive [inhibitor, single point]",–
c1ccc(CCC2CCCCN2Cc2nc(-c3ccc4c(c3)OCO4)no2)nc1 (stereo not given),"inconclusive [inhibitor, single point]",–
CCCCC(=O)NC(c1cccc([N+](=O)[O-])c1)c1ccc2cccnc2c1O (stereo not given),"inconclusive [inhibitor, partial curve, poor fit]",–
COc1ccc(-c2noc(CSc3nnc(Cc4ccccc4)n3-c3ccccc3)n2)cc1OC,"inconclusive [inhibitor, single point]",–
CCOC(=O)c1cc(-c2ccccc2)n(CC(=O)NC2CCC(C)CC2)c1C (stereo not given),–,inactive: -5.62%
CC1CCc2sc(C(=O)NC3CCCCC3)cc2C1 (stereo not given),–,inactive: 1.94%
O=S(=O)(CCSc1nc2ccccc2s1)c1nc2ccccc2s1,"inconclusive [inhibitor, partial curve, poor fit]",–
Cc1cccc(N2CCC(N=CN(C)C)=N2)c1,"inconclusive [inhibitor, partial curve]",–
CCOc1cc(C2NC(=O)c3c(sc4c3CCN(C)C4)N2)ccc1OC(=O)c1ccccc1Cl (stereo not given),"inconclusive [inhibitor, single point]",–
COc1ccc(-c2[nH]c(-c3ccccc3)nc2SCC(=O)Nc2ccc3c(c2)OCCO3)cc1,"inconclusive [inhibitor, single point]",–
CCN(CC)c1cc(C(F)(F)F)nc(-c2ccccn2)n1,"inconclusive [inhibitor, single point]",–

Structure (SMILES),Potency,"activity change, negative = inhibition"
Cc1ccc(N(CC(=O)NC2CCCC2)C(=O)CNC(=O)c2cccs2)c(C)c1,"inconclusive [inhibitor, single point]",–
Oc1ccc(-c2cn3cc(C(F)(F)F)ccc3n2)cc1,"inconclusive [inhibitor, single point]",–
O=C(CN1CCN(c2ccccn2)CC1)Nc1cc(C(F)(F)F)ccc1Cl,"inconclusive [inhibitor, partial curve]",–
Cc1ccc([N+](=O)[O-])cc1N=C(c1cccc([N+](=O)[O-])c1)N1CCOCC1,"inconclusive [inhibitor, single point]",–
CC(CN1CCOCC1)OC(=O)c1ccc(Br)cc1 (stereo not given),"inconclusive [inhibitor, partial curve, poor fit]",–
Cc1noc(/C=C/N(C)C)c1S(=O)(=O)N1CCCC(C(=O)Nc2ccccc2F)C1 (stereo not given),"inconclusive [inhibitor, full curve, poor fit]",–
Oc1ccc(C[C@H]2CNC(=S)N2C[C@H]2CCCN2C[C@H](Cc2ccccc2)N2C[C@H](Cc3ccc(O)cc3)N(CCc3ccccc3)C2=S)cc1,"inconclusive [inhibitor, single point]",–
O=C(N/N=C/c1ccc(O)cc1O)c1ccncc1,"inconclusive [inhibitor, single point]",–
CCOc1ccc(NC(=O)c2cnn(-c3ccc(C)c(Cl)c3)c2C2CCNCC2)cc1,active: 8.91 µM,–
O=C(Nc1ccc(Cl)c(S(=O)(=O)N2CCOCC2)c1)C1CCCC1,"inconclusive [inhibitor, partial curve, poor fit]",–
Cc1ccc2nc(NC(=O)CN(C)S(=O)(=O)c3ccc(Br)s3)sc2c1,"inconclusive [inhibitor, partial curve, poor fit]",–
Cc1ccccc1N(C(=O)Cn1nnc(-c2ccc(F)cc2)n1)C(C(=O)NC(C)(C)C)c1ccncc1 (stereo not given),"inconclusive [inhibitor, partial curve, poor fit]",–
Cc1ccc(-c2[nH]c(-c3ccc(Cl)cc3)nc2SCC(=O)NCC2CCCO2)cc1 (stereo not given),"inconclusive [inhibitor, full curve, poor fit]",–
O=C(O)/C=C/c1cn(Cc2ccccc2)nc1-c1cccnc1,–,inactive: -1.18%
CCC(C)c1ccc(OCCCCN2CCOCC2)cc1 (stereo not given),"inconclusive [inhibitor, partial curve, poor fit]",–
CN(C)c1ccc(C(=S)N2CCN(S(=O)(=O)c3ccccc3)CC2)cc1,"inconclusive [inhibitor, partial curve, poor fit]",–
NNC(=O)c1[nH]c(-c2ccccc2)cc1-c1ccccc1,"inconclusive [inhibitor, partial curve, poor fit]",–
Cn1c(Cl)c(/C=N/OC(=O)C2CC2)c2ccccc21,–,inactive: -16.4%
COc1cc(/C=N/Nc2ncnc3sc4c(c23)CCC4)ccc1O,"inconclusive [inhibitor, partial curve, poor fit]",–
O=c1[nH]c(C2CCN(S(=O)(=O)c3ccc(S(=O)(=O)NC4CC4)cc3)CC2)nc2c1nnn2Cc1ccccc1,"inconclusive [inhibitor, single point]",–
